Variants at the floor of the assay are shown more often than the library holds them.
B1: tRNA (parent)
chain: CUCUCGGUAGCCAAGUUGGUUUAAGGCGCAAGACUUUAAUUUAUCACUACGAAAUCUUGAGAUCGGGCGUUCGACUCGCCCCCGGGAGAUUUUUUCCUCGAGCAA

Variants of: B1
Experiment: nonsense suppression (GFP-seq) (ratio to wild type); higher = more function; SUP4oc tRNA, yeast GFP reporter sort-seq
Outline: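 Yeast carrying genome-integrated SUP4oc tRNA variants from a library with ~3% random mutations were grown in raffinose/galactose medium with 80 mg/L adenine. Each strain also carried a galactose-driven GFP ochre reporter and RFP. Cells were sorted into GFP/RFP bins, and each bin was Illumina-sequenced (phred ≥30). Nonsense suppression (GFPSEQ) is the bin median GFP/RFP, weighted by each variant's estimated cell share per bin, relative to wild-type SUP4oc; variants needed ≥100 reads and ≥30 cells.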

U17G A60C G66C C77A and U17C C80U G86A G88A cannot be ordered by nonsense suppression: ≤ 0.026 for the first, ≤ 0.026 for the second.

G18U G25U G67C and G18A A24C C27A cannot be ordered by nonsense suppression: ≤ 0.026 for the first, ≤ 0.026 for the second.

G18A U71C G73A and G18C A23U A33G U58G A60C U76G C80U cannot be ordered by nonsense suppression: ≤ 0.026 for the first, ≤ 0.026 for the second.

U17C U55C U76G and G18C G25C cannot be ordered by nonsense suppression: ≤ 0.026 for the first, ≤ 0.026 for the second.

Compared with U17C U63G, G18C C34A C80G is lower in nonsense suppression: 0.804 for the first, ≤ 0.026 for the second.

U17G G67U A74G A89C and G18C U35C U70A C82U cannot be ordered by nonsense suppression: ≤ 0.026 for the first, ≤ 0.026 for the second.

G18U C64A and G18C A31U cannot be ordered by nonsense suppression: ≤ 0.026 for the first, ≤ 0.026 for the second.

G18C A31C and U17G U20C G28U G84C cannot be ordered by nonsense suppression: ≤ 0.026 for the first, ≤ 0.026 for the second.

Going from U17G G19U to G18C C75A, the nonsense suppression falls from 1.05 to ≤ 0.026.

G18C C56G G67C and G18U C27G A30C G66U cannot be ordered by nonsense suppression: ≤ 0.026 for the first, ≤ 0.026 for the second.

G18C U21G G32U and G18U U71G cannot be ordered by nonsense suppression: ≤ 0.026 for the first, ≤ 0.026 for the second.

U17A U58C C81U and G18U A54C U55C U71A cannot be ordered by nonsense suppression: ≤ 0.026 for the first, ≤ 0.026 for the second.

G18A U21G C34U and G18U A24C G69A C75G cannot be ordered by nonsense suppression: ≤ 0.026 for the first, ≤ 0.026 for the second.

G18C G66U and G18U A30C U70C A74C cannot be ordered by nonsense suppression: ≤ 0.026 for the first, ≤ 0.026 for the second.

G18C C72U and G18C G61U A74C cannot be ordered by nonsense suppression: ≤ 0.026 for the first, ≤ 0.026 for the second.

U17C A31U C68G C80A and G18C A31C U55C U57A cannot be ordered by nonsense suppression: ≤ 0.026 for the first, ≤ 0.026 for the second.

U17C U22G A33U U35G and G18U G25A cannot be ordered by nonsense suppression: ≤ 0.026 for the first, ≤ 0.026 for the second.

G18U C29G and U17G G32A C83U cannot be ordered by nonsense suppression: ≤ 0.026 for the first, ≤ 0.026 for the second.

U17C C27G U58C G67C and U17A G19C A74G cannot be ordered by nonsense suppression: ≤ 0.026 for the first, ≤ 0.026 for the second.

U17A G19A and U17A U57C cannot be ordered by nonsense suppression: ≤ 0.026 for the first, ≤ 0.026 for the second.

Compared with U17C G61A, U17G U70C is lower in nonsense suppression: 0.235 for the first, ≤ 0.026 for the second.

G18U C72G A74G and U17G A24U C27U C64A U71G A89U cannot be ordered by nonsense suppression: ≤ 0.026 for the first, ≤ 0.026 for the second.

U17C C75A G88A and U17C C77A cannot be ordered by nonsense suppression: ≤ 0.026 for the first, ≤ 0.026 for the second.

U17C G28A G59C G61C and U17G C81A A89C cannot be ordered by nonsense suppression: ≤ 0.026 for the first, ≤ 0.026 for the second.

G18C A23U U57G G88C and U17A U20C G32C G88U cannot be ordered by nonsense suppression: ≤ 0.026 for the first, ≤ 0.026 for the second.

G18A C64A U71C C75G and G18U G19C U21C U55A G86A cannot be ordered by nonsense suppression: ≤ 0.026 for the first, ≤ 0.026 for the second.

G18U A30G and G18C G26C cannot be ordered by nonsense suppression: ≤ 0.026 for the first, ≤ 0.026 for the second.

G18A C79A and G18A C79G cannot be ordered by nonsense suppression: ≤ 0.026 for the first, ≤ 0.026 for the second.

U17C A60C C81U and G18U G28C C29A U57C cannot be ordered by nonsense suppression: ≤ 0.026 for the first, ≤ 0.026 for the second.

G18A U21C A89C and G18U G25U C80G cannot be ordered by nonsense suppression: ≤ 0.026 for the first, ≤ 0.026 for the second.

G18U A24C A31G C80A and G18C A23G A60U G73A C75A cannot be ordered by nonsense suppression: ≤ 0.026 for the first, ≤ 0.026 for the second.

U17G A60G U63G G69A and U17A G19C U58A cannot be ordered by nonsense suppression: ≤ 0.026 for the first, ≤ 0.026 for the second.

U17G U55C C77G and U17C G61A U70C cannot be ordered by nonsense suppression: ≤ 0.026 for the first, ≤ 0.026 for the second.

U17G G28C G32A A60G and U17A G26U G65C A74C cannot be ordered by nonsense suppression: ≤ 0.026 for the first, ≤ 0.026 for the second.

G18A G73U C79A and G19A A23C cannot be ordered by nonsense suppression: ≤ 0.026 for the first, ≤ 0.026 for the second.

G19A A23U and G18C A23G A31U G86A cannot be ordered by nonsense suppression: ≤ 0.026 for the first, ≤ 0.026 for the second.

Compared with G18C G88U, G18A A30U is higher in nonsense suppression: ≤ 0.026 for the first, 0.0262 for the second.

G18C A33G U63G U71C A87C and G18U G67A G88A cannot be ordered by nonsense suppression: ≤ 0.026 for the first, ≤ 0.026 for the second.

G18U U63G and U17G C79G cannot be ordered by nonsense suppression: ≤ 0.026 for the first, ≤ 0.026 for the second.

G18U U21C C34G A74C and G18C G28C G61A U71C U76A cannot be ordered by nonsense suppression: ≤ 0.026 for the first, ≤ 0.026 for the second.

U17G A24C C34G and G18C A54C G84U cannot be ordered by nonsense suppression: ≤ 0.026 for the first, ≤ 0.026 for the second.

U17A C83A and G18U U57G G65C cannot be ordered by nonsense suppression: ≤ 0.026 for the first, ≤ 0.026 for the second.

U17G A54G U55G and U17C U76G cannot be ordered by nonsense suppression: ≤ 0.026 for the first, ≤ 0.026 for the second.

U17A G28A A30U C56A A60C and U17A U21A A31U C75U C81G cannot be ordered by nonsense suppression: ≤ 0.026 for the first, ≤ 0.026 for the second.

Going from U17G A30G to U17G A30C, the nonsense suppression falls from 0.397 to ≤ 0.026.

G18C U21A A33U G66A and G18A A62G C75U cannot be ordered by nonsense suppression: ≤ 0.026 for the first, ≤ 0.026 for the second.

G18A C34U U63A G69A and G18U A54U U58A cannot be ordered by nonsense suppression: ≤ 0.026 for the first, ≤ 0.026 for the second.

G18A G73A and G18A G73U cannot be ordered by nonsense suppression: ≤ 0.026 for the first, ≤ 0.026 for the second.

U17A G18U C29U U35A A87C and U17G G67U cannot be ordered by nonsense suppression: ≤ 0.026 for the first, ≤ 0.026 for the second.

G18C A23C C80A and U17C G66A A89G cannot be ordered by nonsense suppression: ≤ 0.026 for the first, ≤ 0.026 for the second.

G18C U20G G59C and G18C G66A G85C cannot be ordered by nonsense suppression: ≤ 0.026 for the first, ≤ 0.026 for the second.

G18C U22G G65A C68U G85U and G18A G26U cannot be ordered by nonsense suppression: ≤ 0.026 for the first, ≤ 0.026 for the second.

G18U A23U U63G and G18A C56A G59A cannot be ordered by nonsense suppression: ≤ 0.026 for the first, ≤ 0.026 for the second.

G18C G69A A87C and U17A G86U cannot be ordered by nonsense suppression: ≤ 0.026 for the first, ≤ 0.026 for the second.

U17A G86A and G18C G28A U35A C68A cannot be ordered by nonsense suppression: ≤ 0.026 for the first, ≤ 0.026 for the second.

U17A G32U U70G and G18A U35A cannot be ordered by nonsense suppression: ≤ 0.026 for the first, ≤ 0.026 for the second.

U17C C27A C68G A87C and U17C G28A C56G cannot be ordered by nonsense suppression: ≤ 0.026 for the first, ≤ 0.026 for the second.

G19A A24C G85U and U17G U21A U63A cannot be ordered by nonsense suppression: ≤ 0.026 for the first, ≤ 0.026 for the second.

G18C U20C A33U A74C C77U and G19A A30U cannot be ordered by nonsense suppression: ≤ 0.026 for the first, ≤ 0.026 for the second.

U17G C56G C83G and G18U A24U G69A cannot be ordered by nonsense suppression: ≤ 0.026 for the first, ≤ 0.026 for the second.

G18U A33U C82U A89C and G18A G67A cannot be ordered by nonsense suppression: ≤ 0.026 for the first, ≤ 0.026 for the second.

G18U U21G A23U G61A G78A and U17C C29A cannot be ordered by nonsense suppression: ≤ 0.026 for the first, ≤ 0.026 for the second.

G18C C29U and U17G G19C U55A C81A G85C cannot be ordered by nonsense suppression: ≤ 0.026 for the first, ≤ 0.026 for the second.

U17C G18C G19U and G18U G19C G59U G66A cannot be ordered by nonsense suppression: ≤ 0.026 for the first, ≤ 0.026 for the second.

U17C A54U U58G and U17C G73U G88C cannot be ordered by nonsense suppression: ≤ 0.026 for the first, ≤ 0.026 for the second.

G18A A74G and U17C A30G G59C U63G U70A G73C cannot be ordered by nonsense suppression: ≤ 0.026 for the first, ≤ 0.026 for the second.

G18U U21C and G18A G25U G86C cannot be ordered by nonsense suppression: ≤ 0.026 for the first, ≤ 0.026 for the second.

G18U G32A C75G and G18U C64A C77A cannot be ordered by nonsense suppression: ≤ 0.026 for the first, ≤ 0.026 for the second.

U17A G28U and G18C G32C cannot be ordered by nonsense suppression: ≤ 0.026 for the first, ≤ 0.026 for the second.

U17G C82A G85A and G18U U20C A30U C64U cannot be ordered by nonsense suppression: ≤ 0.026 for the first, ≤ 0.026 for the second.

G18C C81G G88A and G18C G73C cannot be ordered by nonsense suppression: ≤ 0.026 for the first, ≤ 0.026 for the second.

U17A U76G and G18A C34U cannot be ordered by nonsense suppression: ≤ 0.026 for the first, ≤ 0.026 for the second.

G19A A30U A54C and G18A A89C cannot be ordered by nonsense suppression: ≤ 0.026 for the first, ≤ 0.026 for the second.

U17G G19C U20C A33U and G18C U20G G65U C75A C77U cannot be ordered by nonsense suppression: ≤ 0.026 for the first, ≤ 0.026 for the second.

U17G A33G A62C C64A and U17C U57C U71G A87U cannot be ordered by nonsense suppression: ≤ 0.026 for the first, ≤ 0.026 for the second.

U17C C64G and G18A G66U cannot be ordered by nonsense suppression: ≤ 0.026 for the first, ≤ 0.026 for the second.

G18C A23C U55A G73A and G18A U71C cannot be ordered by nonsense suppression: ≤ 0.026 for the first, ≤ 0.026 for the second.

G18C G25A A33U U55A C77U and G18U U76G cannot be ordered by nonsense suppression: ≤ 0.026 for the first, ≤ 0.026 for the second.

U17C G18U A62C C82A and G18A G84A cannot be ordered by nonsense suppression: ≤ 0.026 for the first, ≤ 0.026 for the second.

G18A G65C A89C and U17A G25U A31U G86A cannot be ordered by nonsense suppression: ≤ 0.026 for the first, ≤ 0.026 for the second.

U17G G86A and G18A G19A U70C cannot be ordered by nonsense suppression: ≤ 0.026 for the first, ≤ 0.026 for the second.

G18U C56U C64G G73C and G18A A54U cannot be ordered by nonsense suppression: ≤ 0.026 for the first, ≤ 0.026 for the second.

U17G C68A G69U and U17A G18C A31G G61A G65C C68U cannot be ordered by nonsense suppression: ≤ 0.026 for the first, ≤ 0.026 for the second.

With G18A C56A G66U the nonsense suppression was ≤ 0.026.
